Results published in the supplement of paper PMC11417369.
The list shows a part of the results.

system: PfHDP1 homeodomain (GST-tagged); experiment: gcPBM binding intensity (ln(normalized median fluorescence intensity)); higher = stronger DNA binding
Outline: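 Using an Agilent 4 × 180k array, primer-extended double-stranded 36-bp intergenic genomic probes and negative controls were exposed for 1 h to GST-fused P. falciparum DNA-binding domains expressed in E. coli. Binding was carried out in 1× PBS with 1% milk, 0.2 mg/ml BSA, 0.5% salmon testes DNA and 0.03% Triton X-100, and protein was detected with Alexa488 anti-GST antibody and a 488 nm scan. Binding intensity is the highest Masliner-normalised natural-log median intensity across replicate spots of either probe orientation.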

Sequence	gcPBM binding intensity (ln)
ATATTATTCTTATATTCACACAGTTTATATTTCCGT [CACACA_site5653]	6.68
AAATTACATACACGCGCACACACAAAAAAAAAAAAA [CACACA_site1335]	7.24
TAAATTAAATATTATAAACACACATATATATTATTT [CACACA_site8189]	6.35
TTAAAAAATTATTGTAGTACATAGGAAATGAAAAAA [XGTACX_site155]	6.85
TATATACATAAAATTTGTACATATATATATATATAT [XGTACX_site3214]	9.32
AAAAAAAAAAAATGAGCACACATAAATAAAAACAAA [CACACA_site8447]	7.11
ATATAAATAAATACAACACACATGTCATATCTAAAT [CACACA_site7533]	6.45
ATATATATATATAGTTGTACTTAATTTTATATGTTA [XGTACX_site5256]	9.11
CCTTGATATATATAAAGTACATATATATATATATAT [XGTACX_site4325]	9.38
GTGAAATTATTTCCGTGTACACATAAATATATATTT [XGTACX_site3989]	7.34
TTTTACAAATATTACTGTACACATTTTCATATAATT [XGTACX_site17]	6.81
AAACTTATAAAAAGTAGTACCATAAAATAATACATA [XGTACX_site6523]	5.83
TGTTGTATATCTCTATATAGCTATATTGTATATATA [TGCATGCA_negctrl_site323]	6.62
TATATTATTTATTAGACACACATTATTAAAATATTT [CACACA_site4737]	6.27
ATTAACACATTTAAGTGTACATATATAAATATATAT [XGTACX_site7098]	6.48
TATACATTATTATTATGTACTTAAATATATATTATA [XGTACX_site5173]	6.05
TGTGCACGTTCTGTGACACACATTTAAATGTGCTTA [CACACA_site176]	8.91
ATATAACTCAAGGGCACACATATACCTTTCCTTTTT [CACACA_site4390]	6.66
GAAACAAAATTATTTTGTACATATGACTGTAGATAT [XGTACX_site972]	6.83
GGAACGTATATTTTCACACACTCTCAAAAGTACAAG [CACACA_site2301]	6.52
TATATAAAACATGGGTGTACCAACATAAATCATATA [XGTACX_site2320]	6.36
TTGAATATGGTTACATGTACGTATCAATATTTTTTA [XGTACX_site4247]	6.19

Sequence	gcPBM binding intensity (ln)
AATTGTGCATTATATTGTACACGTGTTGTATATATT [XGTACX_site975]	10.8
AATACACGCAGACACACACACAAAAAAAAAAAAAAA [CACACA_site6384]	6.48
ATTTTGTTATGAAACACACACATATAAATATAAATA [CACACA_site7679]	6.63
GTAAGAACACTTTTGTGGTTACTTAAAAGTGTATAT [GTGCAC_negctrl_site422]	6.21
TTATTATTTTTTAACACACACATATATATTATATCT [CACACA_site4906]	6.87
ATTTCAACAAATATAACACACAATGGATAAGAATAA [CACACA_site1974]	7
TTAGTTTCCCAAATATGTACATAAATATAAATCATA [XGTACX_site2746]	6.67
AATACAGTTAGAGAAAGTACACAACTAATATACATA [XGTACX_site8814]	6.42
TGCTTATATGTTGTTACACACTAAAATAGTTAGATA [CACACA_site1277]	6.67
ACATATATTTCAAAGTGTACGCACAATTTTTTTTAC [XGTACX_site6166]	7.01
AACATATATATAATATGTACATAATATATATAAATG [XGTACX_site1161]	6.6
AATATGTGAATATAATCACACACAATACGGAAACAC [CACACA_site8875]	7.62
AAAGAAGGATAATAATGTACAAGCAAAAAAATAAAA [XGTACX_site466]	7.02
CTTTTTTTAATGATAACACACATGTTGTGCATAGAC [CACACA_site3270]	10.7
AAATAATTATTTATCACACATATGTATTTATATATA [CACACA_site4589]	6.66
TACTTTACTAATATATATAGGAGAGTATACATGAAA [CACACA_negctrl_site63]	6.8
ATAAAGTAGATATTTTGTACGCAGGTTGTATATATT [XGTACX_site1464]	6.81
GGAATTATAATAAATGGTACACATAAAAAAAAAAAA [XGTACX_site8343]	6.59
ATTATGTTATATACACGTACGTGTGCTTTATAATTA [XGTACX_site2728]	7.1
TAATAAATAGGACACACACACATATATATATATTAT [CACACA_site4891]	6.91
ATTCCACCTTAAAACTGTACTTTCTCAATCTTTTAT [XGTACX_site796]	6.55
CATATATAAATATGTATGCACTTTAACAAAATGTAT	7.25
